# Data reported in the supplement of paper PMC3334620.
# The full ranking holds about 33,000 sequences; the median of “E-score (-0.5 to 0.5)” is about -0.036, and the highest 2% start at about 0.37. The list shows a part of the results.
# Molecular target: T1, Yer064c (UniProt P40041)
# T1 sequence: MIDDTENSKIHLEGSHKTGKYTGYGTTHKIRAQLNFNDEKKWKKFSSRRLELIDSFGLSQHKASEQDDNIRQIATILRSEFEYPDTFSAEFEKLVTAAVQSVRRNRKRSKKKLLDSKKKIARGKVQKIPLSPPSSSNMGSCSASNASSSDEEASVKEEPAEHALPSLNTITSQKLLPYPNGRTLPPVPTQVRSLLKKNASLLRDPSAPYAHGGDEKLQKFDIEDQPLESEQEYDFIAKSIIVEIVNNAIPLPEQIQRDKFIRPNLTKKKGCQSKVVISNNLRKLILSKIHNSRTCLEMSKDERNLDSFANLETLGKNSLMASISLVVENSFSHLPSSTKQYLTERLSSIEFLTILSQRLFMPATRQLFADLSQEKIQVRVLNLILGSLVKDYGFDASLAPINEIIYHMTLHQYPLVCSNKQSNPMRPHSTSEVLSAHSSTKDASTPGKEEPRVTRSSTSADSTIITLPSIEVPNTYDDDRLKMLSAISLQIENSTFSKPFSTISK
# Test: PBM E-score (8-mer binding enrichment) (E-score (-0.5 to 0.5)); higher = stronger / more preferred TF binding; most listed sequences are background and not binding sites
# Conditions: protein concentration: 200 nM; construct: GST-full length
# Method in brief: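 PURExpress in vitro transcription/translation supplied GST-tagged yeast transcription factors, either full-length or DNA-binding domain. Applied at about 100-200 nM to universal all-10-mer Agilent arrays double-stranded by primer extension, the bound protein was detected with fluorescent anti-GST. E-scores, modified Wilcoxon-Mann-Whitney statistics, were given by the Universal PBM Analysis Suite to ungapped eight-base words pooled with their reverse complements after masliner normalisation.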
row,Sequence,PBM E-score
1,ATATGTAC,0.0162
2,AGAGCAGA,0.0558
3,ACCGTATA,0.0638
4,CAGAGGCA,-0.0329
5,ATAGAAAA,-0.0945
6,AAGCCGCT,-0.12
7,AGACGGAT,0.0246
8,AGATACTG,-0.144
9,ACTCTCAC,0.173
10,AATTGCGT,-0.0875
11,CATAATAA,-0.022
12,AATATTGC,0.0528
13,CCTGAATA,0.0546
14,CACACAGC,-0.024
15,CCTTGTCA,-0.0353
16,AGCGCTCA,0.0423
17,AAATGTGA,0.00892
18,AATGACGA,0.0304
19,ACTCCGTG,0.149
20,AGAGTCCG,0.212
21,ACCTTGTC,-0.295
22,AGAGTTCC,-0.286

row,Sequence,PBM E-score
1,GATATACA,-0.106
2,CTATGCCC,-0.234
3,ATTACGCA,0.168
4,AAACTGGG,-0.3
5,GACCATCC,-0.118
6,ATTCCATG,-0.0378
7,CGAGGTCC,-0.259
8,AAACCTCT,-0.209
9,GGGTGATA,-0.0177
10,CTCCTAAG,-0.0146
11,CCGATAAA,0.0305
12,CACAGACA,0.028
13,ATGCATTG,-0.073
14,AGGGGCCG,-0.045
15,CAGATGGA,-0.152
16,CGCGATAA,0.0411
17,ATGAAAAC,0.0395
18,TGACAGAA,-0.0303
19,AACAGGTC,-0.00323
20,ACTACACA,0.284
21,ATGTCTGC,-0.228
22,GCACTATA,-0.207

row,Sequence,PBM E-score
1,AACGACCC,-0.08
2,GTCCATTA,0.217
3,CCCGGAGC,-0.126
4,TCGCGTCA,0.0267
5,AAGCCACA,0.0204
6,CCCACTCC,-0.231
7,CATCTCCG,-0.0103
8,GCACACCA,-0.166
9,ATTCTTCC,-0.102
10,CCGCCATA,0.0616
11,CACAGCAC,-0.141
12,ACAAGTAC,-0.0421
13,AGGACAAG,-0.135
14,AATTTTCG,-0.0818
15,GGCTACAC,0.235
16,GGATCAAA,0.00661
17,AGGGAGAG,-0.0408
18,GACAGGTA,-0.117
19,AAAGACGA,0.0816
20,GGATCGCC,-0.209
21,GAAGGGAC,-0.0755
22,ATGTTTCA,0.0586

row,Sequence,PBM E-score
1,CCGGGACC,-0.114
2,AAGACCAT,0.109
3,GAGATCAA,0.0881
4,CGTATATA,0.0012
5,CTCACAAG,0.208
6,CCCCGAAG,-0.00793
7,CCTATAGA,-0.0552
8,AAGCTGAT,0.142
9,AGTTCTCC,-0.127
10,ATCCATGG,0.0496
11,GCTTGTAA,0.0285
12,CTAAATCC,0.208
13,CGGGATTC,0.199
14,AACGCTAA,0.095
15,CTTTGGTC,0.0794
16,AGGTAGGC,-0.231
17,AGCACTAA,0.0227
18,CACGTCGA,-0.057
19,CATTGAGG,-0.285
20,CCTTGGTA,0.00702
